Data reported in PubChem BioAssay AID463173 (ICCB-Longwood Screening Facility, Harvard Medical School, 2010).
In all, about 52,000 compounds went through this assay and about 1,700 (3.3%) were called active. Rule as the data show it: active = survival mostly below about 52% (no sharp cut-off); inactive = mostly above about 56%. This is one part of the list.

test system: Wild type; test: S. aureus survival, RN4220 and DeltatarO strains – OD600, teichoic acid synthesis inhibitors, primary screen (AID 463173); conditions: S. aureus RN4220 wild type/DeltatarO growth, OD600, 18 h, active compounds read low, screened at 18.75 µg/mL (by protocol)

| Structure (SMILES) | survival |
| --- | --- |
| Cc1cccc(N(C)C(CNS(=O)(=O)c2ccccc2)c2ccccc2)c1 (stereo not given) | inactive: 86% |
| O=C(Nc1cccc(Cl)c1)c1cc(-c2ccc3c(c2)OCCO3)on1 | inactive: 122% |
| CCN(CC)CCNC(=O)C(=O)NCC(c1cccnc1)N1CCN(c2ccccc2)CC1 (stereo not given) | inactive: 104% |
| N#CN=C(N)CSc1nc(-c2ccccc2)cc(-c2ccccc2)c1C#N | inactive: 114% |
| Cc1cc(Sc2ccc(Cl)cc2)nc2ccccc12 | inactive: 50% |
| CC(C)(C)OC(=O)N1CCC(c2c(C(=O)NC3CCCCC3)cnn2-c2cccc(F)c2)CC1 | inactive: 121% |
| O=C(CSc1ccccc1)NCc1ccc2c(c1)CCN2C(=O)c1ccc(Cl)cc1 | inactive: 117% |
| Cc1cc(C)n(C2CC(=O)N(N(C)C)C2=O)n1 (stereo not given) | inactive: 98% |
| O=C(COc1ccccc1)NCc1ccc2c(c1)CCN2C(=O)c1ccccc1 | inactive: 60% |
| COc1ccccc1N1CCN(CC(=O)N2CCCC2)CC1 | inactive: 94% |
| Cc1ccc(N(C)S(=O)(=O)c2ccc3[nH]c4c(c3c2)CCCC4)cc1 | inactive: 63% |
| Cc1cccc(C(=O)Nc2cccc(C(=O)OCc3cc(=O)n4nc(C(C)C)sc4n3)c2)c1 | inactive: 126% |
| Cn1nnnc1SCCNCc1ccc(OCc2ccccc2Cl)cc1 | inactive: 53% |
| CC(NC(=O)c1ccc(NC(=O)c2nsc3ccccc23)cc1)c1ccccc1 (stereo not given) | inactive: 69% |
| COc1ccc(-n2nc(C(=O)Nc3ccc(Cl)cn3)c3c4ccccc4n(C)c3c2=O)cc1Cl | inactive: 77% |
| Cc1cccc(NC(=O)c2sc3nc4c(cc3c2N)CCCCCC4)c1C | inactive: 121% |
| Clc1ccc(OCc2nc3ccccc3[nH]2)cc1 | inactive: 105% |
| COC(=O)c1c(NC(=O)Cc2coc3ccc(C)cc23)sc2c1CCC2 | inactive: 84% |
| O=C(c1ccccc1Cl)N(Cc1ccco1)Cc1ccco1 | inactive: 92% |
| Cc1ccccc1Nc1c(-c2cccc(N(C)C)c2)nc2ccc(Br)cn12 | inactive: 88% |
| Cc1cc(F)ccc1-n1nnc(C(N)=O)c1C | inactive: 64% |
| CC(=O)c1cccc(NC(=O)c2c(-c3ccccc3)c(-c3ccccc3)nn(C)c2=O)c1 | inactive: 86% |
| CN(Cc1ccccc1)c1ccc(-c2nc(-c3ccco3)no2)cc1[N+](=O)[O-] | inactive: 76% |

| Structure (SMILES) | survival |
| --- | --- |
| Cc1ccc(CCNC(=O)c2cc(Nc3ccc(C)c(C)c3)nc3ccccc23)cc1 | inactive: 76% |
| CC(C)C1C(=O)Nc2ccc(S(=O)(=O)NCc3ccc(Cl)cc3)cc21 (stereo not given) | inactive: 64% |
| Cc1ccc(NC(=O)CSc2c3c(nc4ccccc24)CCCC3)cc1F | inactive: 36% |
| Cc1cc(=O)n(CC(=O)Nc2ccc([N+](=O)[O-])cc2)c(-n2nc(C)cc2C)n1 | inactive: 75% |
| CCOC(=O)c1ccc(NC(=O)CC2C(=O)N(c3ccc(C)cc3)C(=O)N2C2CCCCC2)cc1 (stereo not given) | inactive: 86% |
| Cc1cc(C(F)(F)F)nn1-c1nc(-c2ccccc2)cc(C(F)(F)F)n1 | active: 13% |
| Cc1ccccc1NC(=O)Cn1c(=O)n(CCc2ccccc2)c(=O)c2sc3ccccc3c21 | inactive: 98% |
| Cc1[nH]c2ccccc2c1C(c1ccccc1)c1cccs1 (stereo not given) | inactive: 28% |
| COc1ccc(CCN2C(=O)c3[nH]nc(-c4ccccc4O)c3C2c2cccc(OC)c2)cc1 (stereo not given) | inactive: 73% |
| OC(CN1CCOCC1)Cn1c2ccccc2c2ccccc21 (stereo not given) | inactive: 99% |
| Cc1cccc(-n2c(SCc3nc(-c4ccccc4C)no3)nnc2-c2ccccc2)c1 | inactive: 88% |
| CC(C)S(=O)(=O)c1oc(-c2ccc(F)cc2)nc1S(=O)(=O)c1ccccc1 | inactive: 23% |
| CN1CCN(c2oc(/C=C/c3ccc(F)cc3)nc2C#N)CC1 | inactive: 76% |
| CCc1nn(CC(=O)NC(C)CC)c(=O)c2cc3c(OC)cccc3n12 (stereo not given) | inactive: 133% |
| COc1cc(NC(=O)c2nn(-c3ccc(C)cc3)c(=O)c3c2c2ccccc2n3C)cc(OC)c1OC | inactive: 74% |
| CCOC(=O)c1ccccc1NS(=O)(=O)c1ccc(N2CCCCS2(=O)=O)cc1 | inactive: 97% |
| O=C(Cc1nc2ccccc2[nH]1)N1CCCC1 | inactive: 107% |
| CCOc1ccc(-n2nc(CO)c(C(=O)NCc3cccnc3)n2)cc1 | inactive: 83% |
| COc1ccc(-c2noc(-c3ccc(N4CCN(c5ccc(OC)cc5)CC4)c([N+](=O)[O-])c3)n2)cc1 | inactive: 84% |
| Cc1ccc(NC(=O)CC2SC3=NCCN3C2=O)cc1 (stereo not given) | inactive: 93% |
| COc1cc(C)ccc1OCCCn1c(-c2ccc(Cl)cc2)nc2ccccc2c1=O | inactive: 83% |
| COc1cccc(N2CCN(C(=O)c3cc4c(=O)n(Cc5ccccc5)ccc4nc3C)CC2)c1 | inactive: 126% |
| Cc1cccn2c(=O)c(C(=O)NCc3ccccc3Cl)c(O)nc12 | inactive: 54% |

| Structure (SMILES) | survival |
| --- | --- |
| CS(=O)(=O)N1CCN(c2ncnc3c(-c4ccc(Cl)cc4)nsc23)CC1 | inactive: 110% |
| Cc1ccccc1-c1nc(CS(=O)CC(=O)N2CCN(c3cc(Cl)ccc3C)CC2)c(C)o1 (stereo not given) | active: 10% |
| O=C(NCCCO)c1cc2sc3ccccc3c2s1 | inactive: 103% |
| CCN(CC)CCCNC(=O)Cn1nc(C)n2c(cc3sccc32)c1=O | inactive: 84% |
| O=C1/C(=C/c2ccccc2)Nc2ccccc21 | inactive: 121% |
| CCCCC(=O)Nc1cccc(-c2nc3ncccc3o2)c1C | inactive: 66% |
| CCC(=O)N1c2ccccc2CC1C(=O)NCc1cccc(C)c1 (stereo not given) | inactive: 72% |
| COc1ccc(CCNC(=O)Cn2c(=O)n(-c3ccc(C)c(C)c3)c(=O)c3c(C)c(C)sc32)cc1OC | inactive: 86% |
| COc1ccc(Cn2nnc3c(=O)[nH]c(C4CCCN(C(=O)c5ccc(C)cc5)C4)nc32)cc1 (stereo not given) | inactive: 108% |
| CCCCc1ccc(NC(=O)Cn2nnc3sc4c(c3c2=O)CCC(C)C4)cc1 (stereo not given) | inactive: 77% |
| Cc1ccc(C(=O)c2oc3ccccc3c2NC(=O)Cc2coc3cc(C)ccc23)cc1 | inactive: 81% |
| COc1ccc(OC)c(C(=O)c2c(N)c(-c3nc(-c4ccc(C)c(C)c4)cs3)c3ccccn23)c1 | inactive: 117% |
| Clc1cccc(CSc2nncn3c2cc2sccc23)c1 | inactive: 65% |
| CCc1ccccc1NC(=O)Cn1ccn(-c2cc(C)cc(C)c2)c(=O)c1=O | inactive: 91% |
| COc1ccc(NC(=O)c2ccc3oc(=O)c(S(=O)(=O)c4ccc(C)cc4)cc3c2)cc1OC | inactive: 84% |
| CCOc1cccc(C2Nc3ccccc3-c3cc(C)nn32)c1O (stereo not given) | inactive: 145% |
| Cc1nn(S(=O)(=O)c2ccccc2)c(C)c1S(=O)(=O)N1CCC(C)CC1 | inactive: 81% |
| CC(C)c1cc(C(=O)O)on1 | inactive: 101% |
| CCOC(=O)C1(C)C=C(Nc2ccc(Br)cc2)C(=O)N1c1ccccc1 (stereo not given) | inactive: 69% |
| CCn1c(=NC(=O)c2ccc3c(c2)OCCO3)sc2c(C)ccc(OC)c21 | inactive: 129% |
| Cc1ccc(NC(=O)CSc2nc(C)c(Cc3ccccc3)c(=O)[nH]2)cc1C | inactive: 80% |
| CS(=O)(=O)NCc1ccc2c(c1)OCO2 | inactive: 110% |
| CCN(C(=O)C(=O)Nc1ccc2nc3n(c(=O)c2c1)CCCCC3)c1ccc(F)cc1 | inactive: 94% |

| Structure (SMILES) | survival |
| --- | --- |
| CCN(c1ccccc1)C(CNS(=O)(=O)c1ccccc1)c1ccccc1 (stereo not given) | inactive: 73% |
| COc1ccc(CCNC(=O)c2ccc3c(c2)CCN3S(C)(=O)=O)cc1 | inactive: 94% |
| COc1ccc2c(CNCc3ccc(C)o3)c(C(=O)O)n(Cc3ccccc3C)c2c1 | inactive: 98% |
| Cc1nn(C(C)C(=O)NC2CCCCC2)c(=O)c2c1sc1ccccc12 (stereo not given) | inactive: 82% |
| COc1ccc(CC(=O)NC2CC(=O)N(c3cccc(F)c3)C2)cc1 (stereo not given) | inactive: 110% |
| Cc1ccc(OCC(=O)Nc2ccc(OCc3cc(=O)n4cccc(C)c4n3)cc2)cc1C | active: -6% |
| COc1ccc(CCNC(=O)Cc2c(C)c3c(cc(C)c4c(C)coc43)oc2=O)cc1OC | inactive: 87% |
| COc1ccc(OC)c(C2NC(=O)NC(C)=C2C(=O)Nc2cc(C)cc(C)c2)c1 (stereo not given) | inactive: 72% |
| O=C(c1ccc2c(c1)N(Cc1ccccc1)C(=O)c1ccccc1S2(=O)=O)N1CCN(c2ccccc2)CC1 | inactive: 120% |
| Cc1c(C(=O)N(Cc2ccc(N(C)C)cc2)C2CCS(=O)(=O)C2)oc2ccccc12 (stereo not given) | inactive: 71% |
| Cc1ccc2sc(N(Cc3cccnc3)C(=O)CCOc3ccccc3)nc2c1C | inactive: 63% |
| COc1cc(C(=O)CC2(O)C(=O)N(Cc3ccccc3Cl)c3ccccc32)cc(OC)c1OC (stereo not given) | inactive: 86% |
| CCc1ccc2c(c1)c1nnc(SCC(=O)c3ccc(OC)cc3)nc1n2C | inactive: 106% |
| O=C(Nc1c(C(=O)N2CCN(c3ccc(F)cc3)CC2)oc2ccccc12)c1c(F)cccc1F | inactive: 87% |
| Cc1nnc(NC(=O)CSc2nc3c([nH]c4ccccc43)c(=O)n2-c2ccccc2)s1 | inactive: 75% |
| COc1ccc(C2CC(=O)c3cc(-c4nc(-c5cccc([N+](=O)[O-])c5)cs4)c(=O)n(-c4ccc(C)c(C)c4)c3C2)cc1 (stereo not given) | inactive: 156% |
| CCC(Sc1nc2ccccc2c2nc(CCn3cncc3C)nn12)C(=O)Nc1cccc(OC)c1 (stereo not given) | inactive: 72% |
| CC(C)Oc1ccc(C(=O)Nc2ccc3c(c2)CCCN3C(=O)c2cccs2)cc1 | inactive: 49% |
| COc1ccc(Cn2c(CNC(=O)c3ccc(N(C)C)cc3)nc3cccnc32)cc1 | inactive: 72% |
| O=C(Cn1cc(SCc2ccc(C(F)(F)F)cc2)c2ccccc21)N1CCCCCC1 | inactive: 80% |
| CCC1CCCCN1CCCNC(=O)CN1C(=O)c2cccnc2Oc2ccc(Cl)cc21 (stereo not given) | inactive: 65% |
